{
  "source": "the supplement of paper PMC8728848",
  "binders": {"B1": {"name": "MCI4 (Toxoplasma gondii), Q9XZH7 (protein)", "chain": "MRASLPVHLVVCTQLSAVWFGVAKAHGGHRLEPHVPGFLQGFTDITPAGDDVSANVTSSEPAKLDLSCVHSDNKGSRAPTIGEPVPDVSLEQCAAQCKAVDGCTHFTYNDDSKMCHVKEGKPDLYDLTGGKTASRSCDRSCFEQHVSYEGAPDVMTAMVTSQSADCQAACAADPSCEIFTYNEHDQKCTFKGRGFSAFKERGVLGVTSGPKQFCDEGGKLTQEEMEDQISGCIQLSDVGSMTADLEEPMEADSVGACMERCRCDGRCTHFTFNDNTRMCYLKGDKMQLYSSPGDRTGPKSCDSSCFSNGVSYVDDPATDVETVFEISHPIYCQVICAANPLCTVFQWYASEAKCVVKRKGFYKHRKTGVTGVTVGPREFCDFGGSIRDREEADAVGSDDGLNAEATMANSPDFHDEVECVHTGNIGSKAQTIGEVKRASSLSECRARCQAEKECSHYTYNVKSGLCYPKRGKPQFYKYLGDMTGSRTCDTSCLRRGVDYSQGPEVGKPWYSTLPTDCQVACDAEDACLVFTWDSATSRCYLIGSGFSAHRRNDVDGVVSGPYTFCDNGENLQVLEAKDTE"}},
  "experiment_in_all_cases": "glycan array binding signal (z-score within array); higher = stronger binding",
  "details_in_all_cases": "glycan notation: IUPAC condensed, linker removed",
  "key": {"[1]": {"molecular_target": "Fuc(a1-3)[GalNAc(b1-4)]GlcNAc", "how_it_was_run": "(§1)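 Glycan array binding is given as a within-array Z-score, which can be read as non-binding when negative. The arrays, 3228 of them, came from the Consortium for Functional Glycomics database and were retained only where the protein sequence was available. Z-scores were averaged across arrays of the same protein sequence at different concentrations or buffers and across linkers.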"}, "[2]": {"molecular_target": "Fuc(a1-4)GlcNAc", "how_it_was_run": "as §1"}, "[3]": {"molecular_target": "Fuc(b1-3)GlcNAc", "how_it_was_run": "as §1"}, "[4]": {"molecular_target": "Gal(a1-2)Gal", "how_it_was_run": "as §1"}, "[5]": {"molecular_target": "Gal(a1-3)Gal", "how_it_was_run": "as §1"}, "[6]": {"molecular_target": "Gal(a1-3)Gal(b1-3)GlcNAc", "how_it_was_run": "as §1"}, "[7]": {"molecular_target": "Gal(a1-3)Gal(b1-4)Glc", "how_it_was_run": "as §1"}, "[8]": {"molecular_target": "Gal(a1-3)Gal(b1-4)GlcNAc", "how_it_was_run": "as §1"}, "[9]": {"molecular_target": "Gal(a1-3)Gal(b1-4)[Fuc(a1-3)]GlcNAc", "how_it_was_run": "as §1"}, "[10]": {"molecular_target": "Gal(a1-3)GalNAc", "how_it_was_run": "as §1"}, "[11]": {"molecular_target": "Gal(a1-3)[Gal(a1-4)]Gal(b1-4)GlcNAc", "how_it_was_run": "as §1"}, "[12]": {"molecular_target": "Gal(a1-4)Gal(b1-4)Glc", "how_it_was_run": "as §1"}, "[13]": {"molecular_target": "Gal(a1-4)Gal(b1-4)GlcNAc", "how_it_was_run": "as §1"}, "[14]": {"molecular_target": "Gal(a1-4)GlcNAc", "how_it_was_run": "as §1"}, "[15]": {"molecular_target": "Gal(a1-6)Glc", "how_it_was_run": "as §1"}, "[16]": {"molecular_target": "Gal(b1-2)Gal", "how_it_was_run": "as §1"}, "[17]": {"molecular_target": "Gal(b1-3)Gal", "how_it_was_run": "as §1"}, "[18]": {"molecular_target": "Gal(b1-3)Gal(b1-4)GlcNAc", "how_it_was_run": "as §1"}, "[19]": {"molecular_target": "Gal(b1-3)GalNAc", "how_it_was_run": "as §1"}, "[20]": {"molecular_target": "Gal(b1-3)GalNAc(b1-3)Gal(a1-4)Gal(b1-4)Glc", "how_it_was_run": "as §1"}, "[21]": {"molecular_target": "Gal(b1-3)GalNAc(b1-4)Gal(b1-4)Glc", "how_it_was_run": "as §1"}, "[22]": {"molecular_target": "Gal(b1-3)GalNAc(b1-4)[Neu5Ac(a2-3)]Gal(b1-4)Glc", "how_it_was_run": "as §1"}, "[23]": {"molecular_target": "Gal(b1-3)GlcNAc", "how_it_was_run": "as §1"}, "[24]": {"molecular_target": "Gal(b1-3)GlcNAc(b1-2)Man(a1-3)[Gal(b1-3)GlcNAc(b1-2)Man(a1-6)]Man(b1-4)GlcNAc(b1-4)GlcNAc", "how_it_was_run": "as §1"}, "[25]": {"molecular_target": "Gal(b1-3)GlcNAc(b1-3)Gal(b1-3)GlcNAc", "how_it_was_run": "as §1"}, "[26]": {"molecular_target": "Gal(b1-3)GlcNAc(b1-3)Gal(b1-4)Glc", "how_it_was_run": "as §1"}, "[27]": {"molecular_target": "Gal(b1-3)GlcNAc(b1-3)Gal(b1-4)GlcNAc", "how_it_was_run": "as §1"}, "[28]": {"molecular_target": "Gal(b1-3)[Fuc(a1-4)]GlcNAc", "how_it_was_run": "as §1"}, "[29]": {"molecular_target": "Gal(b1-3)[Fuc(a1-4)]GlcNAc(b1-3)Gal(b1-3)[Fuc(a1-4)]GlcNAc", "how_it_was_run": "as §1"}, "[30]": {"molecular_target": "Gal(b1-3)[Fuc(a1-4)]GlcNAc(b1-3)Gal(b1-4)GlcNAc", "how_it_was_run": "as §1"}, "[31]": {"molecular_target": "Gal(b1-3)[Fuc(a1-4)]GlcNAc(b1-3)Gal(b1-4)[Fuc(a1-3)]GlcNAc", "how_it_was_run": "as §1"}, "[32]": {"molecular_target": "Gal(b1-3)[GlcNAc(b1-6)]GalNAc", "how_it_was_run": "as §1"}, "[33]": {"molecular_target": "Gal(b1-3)[Neu5Ac(a2-6)]GalNAc", "how_it_was_run": "as §1"}, "[34]": {"molecular_target": "Gal(b1-3)[Neu5Ac(a2-6)]GlcNAc(b1-6)Gal(b1-4)Glc", "how_it_was_run": "as §1"}, "[35]": {"molecular_target": "Gal(b1-3)[Neu5Ac(b2-6)]GalNAc", "how_it_was_run": "as §1"}, "[36]": {"molecular_target": "Gal(b1-4)GalNAc(a1-3)[Fuc(a1-2)]Gal(b1-4)GlcNAc", "how_it_was_run": "as §1"}, "[37]": {"molecular_target": "Gal(b1-4)GalNAc(b1-3)[Fuc(a1-2)]Gal(b1-4)GlcNAc", "how_it_was_run": "as §1"}, "[38]": {"molecular_target": "Gal(b1-4)Glc", "how_it_was_run": "as §1"}, "[39]": {"molecular_target": "Gal(b1-4)Glc6S", "how_it_was_run": "as §1"}, "[40]": {"molecular_target": "Gal(b1-4)GlcNAc", "how_it_was_run": "as §1"}, "[41]": {"molecular_target": "Gal(b1-4)GlcNAc(a1-6)Gal(b1-4)GlcNAc", "how_it_was_run": "as §1"}, "[42]": {"molecular_target": "Gal(b1-4)GlcNAc(b1-2)Man(a1-3)[Gal(b1-4)GlcNAc(b1-2)Man(a1-6)]Man(b1-4)GlcNAc(b1-4)GlcNAc", "how_it_was_run": "as §1"}, "[43]": {"molecular_target": "Gal(b1-4)GlcNAc(b1-3)Gal(b1-3)GlcNAc", "how_it_was_run": "as §1"}, "[44]": {"molecular_target": "Gal(b1-4)GlcNAc(b1-3)Gal(b1-4)Glc", "how_it_was_run": "as §1"}, "[45]": {"molecular_target": "Gal(b1-4)GlcNAc(b1-3)Gal(b1-4)GlcNAc", "how_it_was_run": "as §1"}},
  "note": "Some of the results follow.",
  "data": [
    {"binder": "B1", "values": [
      {"measurement": "glycan array binding signal (z-score)", "setting": "[1]", "result": -0.199},
      {"measurement": "glycan array binding signal (z-score)", "setting": "[2]", "result": -0.198},
      {"measurement": "glycan array binding signal (z-score)", "setting": "[3]", "result": -0.212},
      {"measurement": "glycan array binding signal (z-score)", "setting": "[4]", "result": -0.196},
      {"measurement": "glycan array binding signal (z-score)", "setting": "[5]", "result": -0.195},
      {"measurement": "glycan array binding signal (z-score)", "setting": "[6]", "result": -0.206},
      {"measurement": "glycan array binding signal (z-score)", "setting": "[7]", "result": -0.117},
      {"measurement": "glycan array binding signal (z-score)", "setting": "[8]", "result": -0.213},
      {"measurement": "glycan array binding signal (z-score)", "setting": "[9]", "result": -0.172},
      {"measurement": "glycan array binding signal (z-score)", "setting": "[10]", "result": -0.206},
      {"measurement": "glycan array binding signal (z-score)", "setting": "[11]", "result": -0.214},
      {"measurement": "glycan array binding signal (z-score)", "setting": "[12]", "result": -0.211},
      {"measurement": "glycan array binding signal (z-score)", "setting": "[13]", "result": -0.2},
      {"measurement": "glycan array binding signal (z-score)", "setting": "[14]", "result": -0.175},
      {"measurement": "glycan array binding signal (z-score)", "setting": "[15]", "result": -0.202},
      {"measurement": "glycan array binding signal (z-score)", "setting": "[16]", "result": -0.116},
      {"measurement": "glycan array binding signal (z-score)", "setting": "[17]", "result": 3.08},
      {"measurement": "glycan array binding signal (z-score)", "setting": "[18]", "result": 5.93},
      {"measurement": "glycan array binding signal (z-score)", "setting": "[19]", "result": -0.048},
      {"measurement": "glycan array binding signal (z-score)", "setting": "[20]", "result": -0.212},
      {"measurement": "glycan array binding signal (z-score)", "setting": "[21]", "result": 0.101},
      {"measurement": "glycan array binding signal (z-score)", "setting": "[22]", "result": 3.02},
      {"measurement": "glycan array binding signal (z-score)", "setting": "[23]", "result": 0.178},
      {"measurement": "glycan array binding signal (z-score)", "setting": "[24]", "result": -0.156},
      {"measurement": "glycan array binding signal (z-score)", "setting": "[25]", "result": -0.208},
      {"measurement": "glycan array binding signal (z-score)", "setting": "[26]", "result": -0.217},
      {"measurement": "glycan array binding signal (z-score)", "setting": "[27]", "result": -0.22},
      {"measurement": "glycan array binding signal (z-score)", "setting": "[28]", "result": -0.212},
      {"measurement": "glycan array binding signal (z-score)", "setting": "[29]", "result": -0.223},
      {"measurement": "glycan array binding signal (z-score)", "setting": "[30]", "result": -0.206},
      {"measurement": "glycan array binding signal (z-score)", "setting": "[31]", "result": -0.173},
      {"measurement": "glycan array binding signal (z-score)", "setting": "[32]", "result": 0.739},
      {"measurement": "glycan array binding signal (z-score)", "setting": "[33]", "result": 4.31},
      {"measurement": "glycan array binding signal (z-score)", "setting": "[34]", "result": -0.175},
      {"measurement": "glycan array binding signal (z-score)", "setting": "[35]", "result": -0.23},
      {"measurement": "glycan array binding signal (z-score)", "setting": "[36]", "result": 3.21},
      {"measurement": "glycan array binding signal (z-score)", "setting": "[37]", "result": 3.96},
      {"measurement": "glycan array binding signal (z-score)", "setting": "[38]", "result": -0.206},
      {"measurement": "glycan array binding signal (z-score)", "setting": "[39]", "result": 5.04},
      {"measurement": "glycan array binding signal (z-score)", "setting": "[40]", "result": -0.198},
      {"measurement": "glycan array binding signal (z-score)", "setting": "[41]", "result": -0.2},
      {"measurement": "glycan array binding signal (z-score)", "setting": "[42]", "result": 4.68},
      {"measurement": "glycan array binding signal (z-score)", "setting": "[43]", "result": -0.219},
      {"measurement": "glycan array binding signal (z-score)", "setting": "[44]", "result": -0.2},
      {"measurement": "glycan array binding signal (z-score)", "setting": "[45]", "result": -0.208}
    ]}
  ]
}
